# The whole screen tested about 310,000 compounds, of which about 2,200 (0.71%) showed an effect of 50% or more. Effects have a minus sign here. This is one part of the list.
# Biological target: human ether-à-go-go-related gene (hERG) potassium channel (human, UniProt Q12809)
# Test: primary screen, population patch clamp on CHO cells stably expressing hERG
# Sequence of human ether-à-go-go-related gene (hERG) potassium channel (Q12809 whole entry, looked up): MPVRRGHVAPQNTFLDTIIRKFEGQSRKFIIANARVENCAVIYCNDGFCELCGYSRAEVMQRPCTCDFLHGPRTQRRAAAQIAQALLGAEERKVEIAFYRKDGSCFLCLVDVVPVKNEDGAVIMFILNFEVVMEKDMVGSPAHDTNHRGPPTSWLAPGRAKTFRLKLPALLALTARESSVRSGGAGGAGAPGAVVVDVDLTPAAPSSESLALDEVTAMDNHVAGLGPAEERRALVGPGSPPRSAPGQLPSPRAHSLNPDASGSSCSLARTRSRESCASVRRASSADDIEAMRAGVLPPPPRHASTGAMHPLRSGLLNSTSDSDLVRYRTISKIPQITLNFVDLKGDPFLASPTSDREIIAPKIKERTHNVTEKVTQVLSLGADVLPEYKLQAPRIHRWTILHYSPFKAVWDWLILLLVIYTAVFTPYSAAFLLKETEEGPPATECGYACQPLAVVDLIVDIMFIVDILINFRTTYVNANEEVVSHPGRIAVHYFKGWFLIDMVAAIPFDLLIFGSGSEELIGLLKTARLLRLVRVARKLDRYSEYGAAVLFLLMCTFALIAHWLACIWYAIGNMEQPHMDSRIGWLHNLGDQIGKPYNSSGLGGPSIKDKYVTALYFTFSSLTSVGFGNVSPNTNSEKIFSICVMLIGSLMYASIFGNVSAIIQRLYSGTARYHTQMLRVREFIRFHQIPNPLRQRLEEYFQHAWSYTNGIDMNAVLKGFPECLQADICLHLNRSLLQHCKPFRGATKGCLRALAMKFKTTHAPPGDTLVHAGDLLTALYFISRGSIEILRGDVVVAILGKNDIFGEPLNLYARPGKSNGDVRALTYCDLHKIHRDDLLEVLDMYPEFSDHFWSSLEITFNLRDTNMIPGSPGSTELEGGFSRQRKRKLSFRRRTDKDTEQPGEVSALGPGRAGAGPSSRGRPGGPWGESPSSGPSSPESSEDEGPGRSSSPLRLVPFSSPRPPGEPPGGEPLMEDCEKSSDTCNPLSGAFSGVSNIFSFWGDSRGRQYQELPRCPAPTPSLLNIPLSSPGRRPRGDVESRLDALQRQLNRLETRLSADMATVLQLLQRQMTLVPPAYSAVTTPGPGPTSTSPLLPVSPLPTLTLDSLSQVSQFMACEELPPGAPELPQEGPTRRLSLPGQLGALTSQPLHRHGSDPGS
row,Structure (SMILES),"hERG current change (%, negative = inhibition) at 1uM [%]"
1,O=C(Nc1nc(-c2ccccc2)cs1)c1cccc([N+](=O)[O-])c1,4.94
2,CCSc1nnc(-c2cc3c(s2)-c2ccccc2CC3)o1,6.18
3,COc1ccc(CC2(CO)CCN(S(=O)(=O)c3cccc4cccnc34)CC2)cc1,8.05
4,CSC1=NSC2=NC(=O)/C(=C/c3coc4ccccc4c3=O)C(=N)N12,3.58
5,Cc1[nH]c2ccccc2c1C(=O)COC(=O)C(C)C,-3.52
6,COCCCNC(=O)[C@H](CSCc1ccccc1)N1Cc2ccccc2C1=O,12.1
7,CCN1CCCC1CN(Cc1cc2ccc(C)cc2[nH]c1=O)C(=S)Nc1ccc(F)cc1 (centres unmarked),-70.6
8,Cc1ccc(C(NC(=O)N2CC(C)OC(C)C2)C(Cl)Cl)cc1F (centres unmarked),11.9
9,CCOC(=O)c1c(NC(=O)C(=O)N/N=C/c2ccc(OCC)cc2)sc2c1CCCCC2,8.66
10,CCOC(=O)c1c(NC(=O)c2c(Br)cnn2CC)sc(C)c1C,10.8
11,O=C(Nc1nc(-c2ccccn2)cs1)c1ccc(Br)s1,13.4
12,Cc1ccccc1NC(=O)NCCN1C(=O)C2C3C=CC(C3)C2C1=O (centres unmarked),13.8
13,CCOc1ccc(S(=O)(=O)Nc2ccc(C(=O)NCC(c3ccccc3)N(C)C)cc2)cc1 (centres unmarked),-11.6
14,Cc1c(C(=O)N2CCCCC2)c(S(=O)(=O)NCc2ccc(N(C)C)cc2)c(C)n1C,18.4
15,CCOC(=O)C1(Cc2ccccc2)CCCN(C(=O)C=C(C)C)C1 (centres unmarked),18.5
16,COc1ccc([C@@H]2[C@@H]3C(=O)N(C(C)(C)C)C(=O)[C@@H]3[C@]3(C)C(=O)N(c4ccccc4)C(=O)N23)cc1,7.39
17,O=[N+]([O-])c1cccc(C(=Nc2ccc(Cl)cc2)NO)c1,13.1
18,CC(C)C[C@H](NC(=O)NCc1ccc(F)cc1)C(=O)O,5.71
19,Cc1ccnc(NC(=O)CNC(=O)c2ccc(C)s2)c1,2.55

row,Structure (SMILES),"hERG current change (%, negative = inhibition) at 1uM [%]"
1,COc1cc(C2C(C(=O)c3ccc(C)o3)=C(O)C(=O)N2CCCn2ccnc2)cc(OC)c1OC (centres unmarked),-10.8
2,CC(=O)OCC1OC(n2cc(F)c(=O)[nH]c2=O)C(OC(C)=O)C1OC(C)=O (centres unmarked),8.4
3,Cc1noc(NC(=O)c2cccc(C(F)(F)F)c2)c1Cl,7.08
4,Cc1nnsc1C(=O)Nc1ccc(S(=O)(=O)N2CCC(C)CC2)cc1,16.9
5,c1ccc(CC(Nc2ccccn2)c2ccccc2)cc1 (centres unmarked),-10.6
6,COc1ccc(OC)c(C(=O)NC(CC(N)=O)c2ccc(N3CCC(N4CCCC4)CC3)c([N+](=O)[O-])c2)c1 (centres unmarked),12.9
7,CCOCCn1c(CN2CCN(C)CC2)nc2c1c(=O)n(C)c(=O)n2C,17.2
8,CCN(CC)CCN(C(=O)c1c(F)cccc1F)c1nc2cc(C)cc(C)c2s1.Cl,2.79
9,N#Cc1c(-c2ccccc2)cc(-c2ccccc2)[nH]c1=O,12.9
10,O=C(CSc1nc2ccccc2c(=O)n1CCC(=O)N1CCN(c2ccccc2)CC1)NCC1CCCO1 (centres unmarked),3.09
11,Cc1ccc(NS(=O)(=O)c2coc(C(N)=O)c2)cc1F,12.4
12,O=C(c1ccc(S(=O)(=O)N2CCOCC2)cc1)N1CCOCC1,9.57
13,COC(=O)c1ccc(CSc2nnc3nc(C)cc(C)n23)cc1,11.9
14,Cc1nnsc1NC(=O)OCc1ccccc1Cl,13.4
15,COc1ccccc1-c1nc(C#N)c(N2CCc3ccccc3C2)o1,8.12
16,Cc1cc(C)nc(N2C(=O)CC(C(C)c3ccccc3)C2=O)n1 (centres unmarked),12.5
17,O=C(CCn1nnnc1CN1CCOCC1)N1CCC(c2ccccc2Cl)C1 (centres unmarked),4.81
18,CC(C)C(=O)NC(=S)Nc1nnn(C)n1,16.2
19,CCOc1ccccc1CN1CCNC(=O)C1CC(=O)N(C)CCc1ccccn1 (centres unmarked),14.8

row,Structure (SMILES),"hERG current change (%, negative = inhibition) at 1uM [%]"
1,Cc1nn(-c2ccccc2)c(C)c1C(=O)OCC(=O)NC(=O)NC1CCCCC1,6.41
2,O=CN1CCN(C(=O)C(=O)c2cn(CC(=O)N3CCCCC3)c3ccccc23)CC1,16.2
3,CCC1(c2ccccc2)NC(=O)N(CC(=O)Nc2cccc(C#N)c2)C1=O (centres unmarked),7.23
4,COc1ccccc1N1CCN(S(=O)(=O)CCNC(=O)CC2CCCCC2)CC1,5.55
5,Cc1noc(C)c1C(c1ccccc1)c1ccccc1,3.63
6,O=[N+]([O-])c1ccccc1S(=O)(=O)N1CCN(c2ccccc2)CC1,7.9
7,Cc1ccc2nc(NS(=O)(=O)c3cn(C)nc3C)sc2c1,1.52
8,CC(C)CCNC(=O)CN(Cc1ccccc1Cl)C(=O)CCC(=O)Nc1ccccn1,1.91
9,CC(NC(=O)c1cnc2n(c1=O)CCS2)c1ccccc1 (centres unmarked),7.49
10,Cc1ccc(S(=O)(=O)NCCC(=O)NCc2ccc3c(c2)OCO3)cc1C,1.37
11,Cc1cc(NC(=O)c2cc(CC(C)C)on2)no1,14.3
12,Nc1nc2c(ncn2CCC(CO)CO)c(=O)[nH]1,2.46
13,CN(CC(N)=O)S(=O)(=O)c1ccc(F)cc1,-11.8
14,Cc1cc(NC(=S)NC(=O)/C=C/c2ccc(S(=O)(=O)N3CCOCC3)cc2)ccc1Br,15.8
15,O=C(c1coc2ccccc2c1=O)N1CCN(c2cccc(C(F)(F)F)c2)CC1,2.03
16,Cc1ccc(Cl)cc1NS(=O)(=O)c1cc2[nH]c(=O)c(=O)[nH]c2cc1C,12.3
17,COC(=O)COc1ccc2c(-c3cccc([N+](=O)[O-])c3)cc(=O)oc2c1,-2.05
18,COc1ccc(N2CCN(C(=O)C(NC(=O)c3c(F)cccc3F)C(C)C)CC2)cc1 (centres unmarked),8.88

# Reference: publication PMC4336329 (PLoS ONE, 2015)
